The other results are listed elsewhere or left out. Sequences were assembled here from the parent chain. Inactive controls read about 0.05.
B1: TEV protease; numbered along this chain (parent)
chain: MGESLFKGPRDYNPISSSICHLTNESDGHTTSLYGIGFGPFIITNKHLFRRNNGTLVVQSLHGVFKVKDTTTLQQHLVDGRDMIIIRMPKDFPPFPQKLKFREPQREERICLVTTNFQTKSMSSMVSDTSCTFPSGDGIFWKHWIQTKDGQCGSPLVSTRDGFIVGIHSASNFTNTNNYFTSVPKNFMELLTNQEAQQWVSGWRLNADSVLWGGHKVFMVKPEEPFQPVKEATQL

Variants of: B1
Assay: raw area under fraction-flipped curve 0-4 h after induction (AUC4h, not background-subtracted), DNA-recorder readout of cleavage of the substrate (dimensionless); higher = more cleavage of the substrate by the protease variant
Conditions: temperature: 34 °C; time window: 0-4 h after rhamnose induction
Protocol: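 In vivo DNA recorder in E. coli TOP10(DE3) ΔrhaA at 34 °C. Each TEVp single-site mutant (parent TEVp 0) is paired with a single-site variant of the 7-mer TEVs (canonical ENLYFQ|S). The substrate sits between flexible linkers in a Bxb1-sfGFP-TEVs-SsrA fusion, so cleavage stabilises Bxb1 and speeds flipping of a recombination array, read by NGS. The value is the raw area under the fraction-flipped curve over 0-4 h after rhamnose induction (AUC4h), with ≥20 reads per time point. It is not background-subtracted; inactive controls average about 0.047.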
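Also: Bxb1 expression induced with 0.2% (w/v) L-rhamnose at OD600 near 0.5, cultures sampled hourly, flipped fraction per protease–substrate barcode pair counted by paired-end Illumina sequencing.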

Variant | area with substrate ENLAFQS | area with substrate ENLDFQS | area with substrate ENLIFQS | area with substrate ENLKFQS | area with substrate ENLMFQS | area with substrate ENLNFQS | area with substrate ENLPFQS | area with substrate ENLQFQS | area with substrate ENLSFQS | area with substrate ENLCFQS | area with substrate ENLFFQS | area with substrate ENLGFQS | area with substrate ENLHFQS | area with substrate ENLLFQS | area with substrate ENLRFQS | area with substrate ENLWFQS | area with substrate ENLEFQS | area with substrate ENLVFQS | area with substrate ENLTFQS
F187K | 0.0542 | 0.0486 | 0.0435 | 0.0735 | 0.0403 | 0.0596 | 0.0483 | 0.0597 | 0.0395 |  |  |  |  |  |  |  |  |  | 
W141K | 0.0513 | 0.0574 |  | 0.0567 |  | 0.0718 |  |  |  | 0.0627 | 0.0589 | 0.0662 | 0.0471 | 0.0546 | 0.0644 | 0.0531 |  |  | 
W141L | 0.0615 |  |  | 0.0602 |  | 0.0581 |  |  |  |  | 0.0521 | 0.0571 |  | 0.048 |  |  |  |  | 
G138I | 0.0405 | 0.0532 |  | 0.0676 |  | 0.059 |  |  |  |  | 0.0798 |  |  |  |  |  | 0.0584 |  | 
T181D | 0.0588 | 0.0563 | 0.0616 | 0.0547 | 0.0572 |  |  |  | 0.051 | 0.0549 |  |  |  |  |  |  |  |  | 
T181Q | 0.0804 | 0.0668 |  |  |  |  |  |  |  | 0.0451 | 0.0546 |  | 0.0429 |  | 0.0504 | 0.0672 | 0.0631 |  | 
D137G | 0.0488 | 0.0589 | 0.0816 | 0.0846 |  | 0.0598 |  | 0.0603 | 0.0467 | 0.0695 | 0.0879 |  |  | 0.0623 | 0.063 | 0.0581 |  | 0.0848 | 
D137M | 0.0587 | 0.0572 |  | 0.0769 | 0.0841 | 0.071 | 0.0542 |  | 0.0591 | 0.0857 | 0.0507 |  |  | 0.0648 |  |  | 0.0629 |  | 
N178L | 0.072 | 0.0549 |  | 0.0982 | 0.0602 | 0.0783 |  | 0.0754 | 0.0537 |  | 0.106 |  |  | 0.0819 | 0.0591 | 0.0678 | 0.072 |  | 
L156P | 0.048 | 0.0594 |  | 0.0525 | 0.048 | 0.0507 |  |  |  |  |  |  | 0.0516 |  | 0.0625 | 0.0532 | 0.078 |  | 
L156F | 0.059 |  |  | 0.0629 |  | 0.0515 | 0.0471 | 0.0523 | 0.0586 | 0.0576 | 0.064 |  | 0.0487 | 0.0584 | 0.0693 |  | 0.0602 | 0.0472 | 
T174M | 0.0669 | 0.0607 | 0.0834 |  |  | 0.0367 |  |  | 0.0562 | 0.0591 | 0.12 |  |  | 0.0704 | 0.0493 |  |  |  | 
S158K | 0.055 | 0.0555 | 0.0469 | 0.0598 |  | 0.0416 |  | 0.0486 | 0.0385 |  | 0.0539 |  | 0.0401 |  | 0.0558 | 0.046 |  | 0.0694 | 
S158Q | 0.0621 | 0.0599 |  | 0.0575 |  | 0.0438 |  | 0.0491 | 0.0508 |  | 0.0622 |  |  |  |  |  |  | 0.0557 | 
D161L | 0.043 | 0.048 | 0.0527 | 0.0508 | 0.064 | 0.0556 | 0.0672 |  | 0.0424 | 0.0505 | 0.0579 | 0.0591 | 0.0559 |  | 0.0579 | 0.0431 |  | 0.0559 | 
V126K | 0.0638 |  | 0.0789 | 0.0877 |  | 0.0554 | 0.0538 |  | 0.0654 | 0.0535 | 0.0952 | 0.0653 | 0.102 | 0.0716 |  | 0.0542 | 0.0495 |  | 0.092

Variant | area with substrate ENLAFQS | area with substrate ENLDFQS | area with substrate ENLIFQS | area with substrate ENLKFQS | area with substrate ENLMFQS | area with substrate ENLNFQS | area with substrate ENLPFQS | area with substrate ENLQFQS | area with substrate ENLSFQS | area with substrate ENLCFQS | area with substrate ENLFFQS | area with substrate ENLGFQS | area with substrate ENLHFQS | area with substrate ENLLFQS | area with substrate ENLRFQS | area with substrate ENLWFQS | area with substrate ENLEFQS | area with substrate ENLVFQS | area with substrate ENLTFQS
Y179G | 0.054 |  |  |  |  | 0.0637 | 0.0377 |  |  |  | 0.0571 |  | 0.0588 |  | 0.0673 |  |  |  | 
Y179P | 0.0269 | 0.0493 |  | 0.0547 |  | 0.0513 | 0.0505 |  | 0.059 | 0.0376 | 0.0559 |  | 0.0557 | 0.0622 | 0.0615 |  | 0.0506 |  | 
Q197L | 0.0709 | 0.0605 | 0.0909 |  |  |  | 0.0568 | 0.0741 |  |  | 0.0948 | 0.0679 | 0.0697 | 0.0635 |  |  | 0.0613 |  | 0.0325
W199A | 0.0435 | 0.0641 |  | 0.0623 |  | 0.0563 | 0.0654 | 0.0756 |  |  | 0.0568 |  | 0.0512 |  |  | 0.0592 |  |  | 
F180T | 0.0593 | 0.0567 |  | 0.0605 |  | 0.0728 |  |  |  |  | 0.0607 |  | 0.0682 | 0.0467 |  |  |  |  | 
D149F | 0.0661 | 0.0625 | 0.084 |  |  | 0.111 | 0.0677 |  | 0.0676 | 0.0443 | 0.0991 | 0.0554 | 0.062 |  |  | 0.0628 | 0.057 |  | 
I145S | 0.0567 | 0.0626 | 0.104 | 0.0806 |  | 0.0593 | 0.0708 | 0.108 | 0.0234 | 0.0799 |  |  |  | 0.0643 | 0.0963 | 0.0924 | 0.0415 | 0.0814 | 
I167M | 0.0491 |  | 0.066 | 0.0723 |  | 0.0558 | 0.0637 |  |  | 0.074 | 0.0647 | 0.0687 | 0.0577 | 0.0315 |  | 0.0278 | 0.0766 |  | 
I167P | 0.0576 | 0.057 |  | 0.0515 |  | 0.0621 |  | 0.0522 | 0.0515 |  | 0.0574 | 0.0515 |  | 0.0731 |  |  | 0.0617 | 0.0551 | 
V157H | 0.0479 | 0.054 |  | 0.0431 |  | 0.0584 | 0.0504 |  | 0.0528 | 0.0558 | 0.06 | 0.0589 | 0.0513 | 0.061 | 0.0652 | 0.0526 | 0.0425 |  | 
L191N | 0.0568 | 0.0489 |  |  |  |  | 0.0327 |  | 0.0578 |  | 0.0541 |  |  | 0.0451 | 0.046 | 0.0378 |  | 0.0519 | 0.0449
L191H | 0.054 | 0.0675 |  | 0.0492 | 0.099 | 0.0582 | 0.0516 | 0.0565 |  |  | 0.07 |  |  |  | 0.0616 | 0.0615 |  | 0.0645 | 0.0317
L191W | 0.051 |  | 0.0766 | 0.064 |  |  | 0.0639 | 0.0663 | 0.0604 | 0.062 |  | 0.0601 | 0.055 |  | 0.0755 | 0.0449 | 0.0473 | 0.057 | 
S135M | 0.0715 | 0.07 |  | 0.0786 |  | 0.0409 | 0.0522 | 0.0494 | 0.0592 | 0.0603 | 0.0528 | 0.0675 |  |  | 0.0623 |  | 0.0619 | 0.031 | 0.0498
S135E | 0.0613 | 0.0706 |  | 0.0626 | 0.0438 | 0.0686 |  | 0.061 |  | 0.0629 |  |  | 0.0577 |  | 0.0438 |  | 0.0632 |  | 
S135T | 0.0462 | 0.0622 | 0.0652 | 0.0635 | 0.0622 | 0.0764 | 0.0654 | 0.0651 | 0.0514 |  | 0.0803 |  |  |  | 0.0543 | 0.054 | 0.0626 |  | 

From the supplement of paper PMC12217912
